# Assay results as given in PubChem BioAssay AID624296 (National Center for Advancing Translational Sciences (NCATS), 2012).
# The whole screen tested about 350,000 compounds, of which about 9,900 (2.8%) were called active. The inconclusive results got no clear call from the source; some entries with a clear call stand among them for comparison. Calls come from the whole dose curve; as a rule, active = well fitted activation curve with a large enough effect; inconclusive = small, poorly fitted or top-dose-only effect; inactive = no such curve, though single readings can be large or run the other way. Potencies of inconclusive entries are left out as doubtful fits.
# Assay: A quantitative high throughput screen for small molecules that induce DNA re-replication in MCF 10a normal breast cells. Note: nearly all actives have a fitted effect of over 50% in size.
# Details: MCF 10A DNA re-replication, Hoechst nuclear intensity, 48 h; series mostly up to 46.1 µM
# Potency is the fitted concentration of half-maximal effect; tags give direction and shape of the fitted curve.
row,SMILES,Potency
1,COc1ccccc1CSc1ncc(-c2ccc([N+](=O)[O-])cc2)[nH]1,active: 11.6 µM
2,Cc1ccc(-c2nc3ccccn3c2NCc2ccc3c(c2)OCO3)cc1,"inconclusive [activator, single point]"
3,Oc1ccc(Br)cc1-c1cc(-c2ccccc2)n[nH]1,"inconclusive [activator, single point]"
4,COc1ccc(CN2CCN(C(C)C(=O)N3CCc4ccccc43)CC2)cc1OC (centres undefined),inactive
5,COc1cccc2c1O/C(=N\O)C(C(=O)Nc1ccc(C)cc1)C2 (centres undefined),active: 18.4 µM
6,CC(C)=CCC/C(C)=C/CNC(=O)C[C@H]1C[C@H](C(=O)N(C(C)C)C(C)C)[C@@]2(C)c3[nH]c4cc(CCC(=O)N(C)C)ccc4c3CCN2C1=O,"inconclusive [activator, single point]"
7,O=C(Nc1ccc(Oc2ccc(NC(=O)Nc3ccccc3Cl)cc2)cc1)Nc1ccccc1Cl,"inconclusive [activator, partial curve]"
8,Cc1sc2ncnc(OCC(=O)N3CCN(S(=O)(=O)c4ccccc4)CC3)c2c1C,"inconclusive [activator, single point]"
9,CN=C1c2cc3c(Br)c(OC)ccc3n2CCN1C,inactive
10,CCN1CCN(CCCN(Cc2ccco2)C(=S)Nc2ccc(C)c(Cl)c2)CC1,"inconclusive [activator, partial curve, poor fit]"
11,Cc1ccc(-c2nnn(CC(=O)N(CC(=O)NC3CCCCC3)c3ccc(F)c(Cl)c3)n2)o1,"inconclusive [activator, partial curve]"
12,COC(=O)c1ccc2nc(NC(=O)C3CC3)sc2c1,inactive
13,COc1ccc(-c2nnc(SCc3nnc(-c4cccs4)o3)n2CC2CCCO2)cc1 (centres undefined),inactive
14,Cc1nccn1CC(O)COc1ccc([N+](=O)[O-])cc1 (centres undefined),"inconclusive [activator, partial curve, poor fit]"
15,O=C(NCC1CCCO1)c1cc2cc(Cl)ccc2[nH]1 (centres undefined),inactive
16,COc1ccc(N2CCOCC2)c(NC(=O)c2ccc(Br)o2)c1,inactive
17,COc1ccc(/C=N/NS(=O)(=O)c2ccccc2)cc1OS(=O)(=O)c1ccccc1,inactive
18,CC(Nc1nc(-c2cccnc2)nc2ccccc12)c1ccc(F)cc1 (centres undefined),"inconclusive [activator, partial curve, poor fit]"
19,COc1ccc(CN2CCN(CC(O)Cn3c4ccccc4c4ccccc43)CC2)cc1 (centres undefined),"inconclusive [activator, single point]"
20,C[C@@H](CN1CCC(Cc2ccccc2)CC1)[C@@H](O)c1ccc(O)cc1,"inconclusive [activator, full curve, poor fit]"
21,CCOC(=O)C1CCN(C(=O)c2ccc3c(c2)NC(=O)/C(=C\c2ccc(C)cc2)S3)CC1,"inconclusive [activator, single point]"
22,Nc1nc(CCl)nc(N(c2ccccc2)c2ccccc2)n1,"inconclusive [activator, single point]"

row,SMILES,Potency
1,Fc1ccccc1N1CCN(c2nc3ccccc3n3nnnc23)CC1,"inconclusive [activator, partial curve, poor fit]"
2,CCOc1ccc(C(NC(=O)CC)c2c(O)ccc3ccccc23)cc1 (centres undefined),"inconclusive [activator, single point]"
3,COc1ccccc1NC(=O)/C=C/c1ccc2c(c1)OCO2,"inconclusive [activator, full curve, poor fit]"
4,CCOC(=O)c1c(-c2cccs2)csc1NC(C)=O,inactive
5,COc1cccc(-c2cc(=O)c3cc(NC(=O)c4ccccc4)ccc3[nH]2)c1,active: 5.8 µM
6,Cc1cc(/C=C2/C(=N)N3C(=NC2=O)SN=C3S(C)(=O)=O)c(C)n1-c1ccccc1,"inconclusive [activator, partial curve, poor fit]"
7,CCc1nc(C)ccc1OC(=O)C12CC3CC(CC(C3)C1)C2,"inconclusive [activator, partial curve, poor fit]"
8,CCS(=O)(=O)c1ncc(Cl)c(C(=O)Nc2ccc(S(=O)(=O)N(C)c3ccccc3)cc2)n1,"inconclusive [activator, partial curve, poor fit]"
9,Cc1ccc(/C=C/c2onc(C)c2S(=O)(=O)N2CCC(C(=O)N3CCN(C)CC3)CC2)cc1,"inconclusive [activator, single point]"
10,CC(=O)N1CCN(CCS(=O)(=O)c2cc(Cl)ccc2Cl)CC1,active: 14.6 µM
11,C#Cc1ccc([C@@H]2C=C(C(=O)OCC=C)O[C@H](OCC)[C@H]2CCCO)cc1,"inconclusive [activator, single point]"
12,O=C1C=C(c2ccccc2)CCC1,"inconclusive [activator, full curve]"
13,COc1ccc2c(c1)OC[C@H]1[C@H]2N2C(=O)CN(Cc3ccccc3)C(=O)[C@@]2(C)[C@H]1c1ccccc1,inactive
14,Cc1ccc(S(=O)(=O)NC2CCCCC2)cc1,inactive
15,O=C(Nc1ccc2oc(-c3ccc4ccccc4c3)nc2c1)c1cccs1,active: 5.17 µM
16,Cc1c(NC(=O)c2ccc(CC(C)C)o2)c(=O)n(-c2ccccc2)n1C,inactive
17,CCOC(=O)c1c(C)[nH]c(C(=O)CSc2nnc(-c3cccs3)n2Cc2ccccc2)c1C,"inconclusive [activator, single point]"
18,O=C(Cc1ccc(Cl)cc1)Nc1ccc(N2CCN(C(=O)c3ccco3)CC2)cc1,"inconclusive [activator, partial curve, poor fit]"
19,N#C/C(=N\Nc1ccccc1)C(N)=S,inactive
20,C/C(=N\NC(=O)COc1ccc(C(C)(C)C)cc1)c1ccc(-n2ccnc2)cc1,"inconclusive [activator, single point]"
21,Cc1cc(C)n2[nH]c(=O)c(N=Nc3cccc(Cl)c3)c2n1,inactive
22,Cc1noc(C)c1CSCC(=O)N1CCN(c2ccc(F)cc2)CC1,inactive
